From publication PMC12820563, “FoxP3 forms a head-to-head dimer in vivo and stabilizes its multimerization on adjacent microsatellites”
Some of the results follow.

Biological target: T1, MBP-FoxP1dN (Mus musculus, UniProt P58462 326-579)
T1 sequence: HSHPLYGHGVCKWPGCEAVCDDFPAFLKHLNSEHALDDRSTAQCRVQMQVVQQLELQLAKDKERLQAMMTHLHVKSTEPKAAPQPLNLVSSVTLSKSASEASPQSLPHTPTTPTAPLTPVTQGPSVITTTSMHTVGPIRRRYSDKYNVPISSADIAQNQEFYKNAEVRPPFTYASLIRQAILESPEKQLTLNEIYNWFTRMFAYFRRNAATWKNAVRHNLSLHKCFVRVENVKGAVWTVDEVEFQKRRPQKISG
Assay: PD-seq (MBP pull-down with sequencing); 20 mM Tris-HCl pH 7.5, 100 mM NaCl, 1.5 mM MgCl2, 0.4 uM protein, 0.1 uM dsDNA library, 30 min, room temperature, amylose pull-down; high values mean tight binding
Conditions: protein: recombinant; tags: His6-MBP; chain copies: 2; dsDNA, one strand shown
Method in brief: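 Binding is reads-per-million enrichment of pull-down over input, with replicates pooled. It comes from 30 min room-temperature incubation in Tris pH 7.5 buffer with NaCl and MgCl2 of 0.4 µM His6-MBP-tagged, N-terminally truncated mouse FoxP3 or FoxP1 fragment from E. coli with 0.1 µM Klenow-filled degenerate double-stranded DNA library, followed by amylose resin capture, three washes and Illumina sequencing of the released DNA.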

Row | Sequence | binding signal
1 | GATGATTGTTCTCCCAGCTGATGAATTAGCTATATCGAGTAAACAAATTTTCCTAATCTTTCTGTTCAAGCGCCATCTAC | 1.01 RPM ratio (pull-down/input)
2 | GATGATTGTTCTCCCAGCTGATGAATTTCCACGCTCGAGTAAACAAATTTTCCTAATCTTTCTGTTCAAGCGCCATCTAC | 0.899 RPM ratio (pull-down/input)
3 | GATGATTGTTCTCCCAGCTGATGAATTGTCAGGATCGAGTAAACAAATTTTCCTAATCTTTCTGTTCAAGCGCCATCTAC | 0.89 RPM ratio (pull-down/input)
4 | GATGATTGTTCTCCCAGCTGATGAATTCCGCCCTTCGAGTAAACAAATTTTCCTAATCTTTCTGTTCAAGCGCCATCTAC | 0.831 RPM ratio (pull-down/input)
5 | GATGATTGTTCTCCCAGCTGATGAATTGTCATATTCGAGTAAACAAATTTTCCTAATCTTTCTGTTCAAGCGCCATCTAC | 1.17 RPM ratio (pull-down/input)
6 | GATGATTGTTCTCCCAGCTGATGAATTGCATACTTCGAGTAAACAAATTTTCCTAATCTTTCTGTTCAAGCGCCATCTAC | 1.23 RPM ratio (pull-down/input)
7 | GATGATTGTTCTCCCAGCTGATGAATTATATACCTCGAGTAAACAAATTTTCCTAATCTTTCTGTTCAAGCGCCATCTAC | 0.983 RPM ratio (pull-down/input)
8 | GATGATTGTTCTCCCAGCTGATGAATTAGGAAACTCGAGTAAACAAATTTTCCTAATCTTTCTGTTCAAGCGCCATCTAC | 0.851 RPM ratio (pull-down/input)
9 | GATGATTGTTCTCCCAGCTGATGAATTGGAACTATCGAGTAAACAAATTTTCCTAATCTTTCTGTTCAAGCGCCATCTAC | 0.868 RPM ratio (pull-down/input)
10 | GATGATTGTTCTCCCAGCTGATGAATTATTTAACTCGAGTAAACAAATTTTCCTAATCTTTCTGTTCAAGCGCCATCTAC | 1.05 RPM ratio (pull-down/input)
11 | GATGATTGTTCTCCCAGCTGATGAATTGACTACCTCGAGTAAACAAATTTTCCTAATCTTTCTGTTCAAGCGCCATCTAC | 0.994 RPM ratio (pull-down/input)
12 | GATGATTGTTCTCCCAGCTGATGAATTGCGGAGCTCGAGTAAACAAATTTTCCTAATCTTTCTGTTCAAGCGCCATCTAC | 0.917 RPM ratio (pull-down/input)
13 | GATGATTGTTCTCCCAGCTGATGAATTAGGCTGCTCGAGTAAACAAATTTTCCTAATCTTTCTGTTCAAGCGCCATCTAC | 0.85 RPM ratio (pull-down/input)
14 | GATGATTGTTCTCCCAGCTGATGAATTGCTAACATCGAGTAAACAAATTTTCCTAATCTTTCTGTTCAAGCGCCATCTAC | 1.33 RPM ratio (pull-down/input)
15 | GATGATTGTTCTCCCAGCTGATGAATTTACAAAATCGAGTAAACAAATTTTCCTAATCTTTCTGTTCAAGCGCCATCTAC | 1.74 RPM ratio (pull-down/input)
16 | GATGATTGTTCTCCCAGCTGATGAATTCTTATTTTCGAGTAAACAAATTTTCCTAATCTTTCTGTTCAAGCGCCATCTAC | 2.25 RPM ratio (pull-down/input)

Row | Sequence | binding signal
17 | GATGATTGTTCTCCCAGCTGATGAATTCGTCTCTTCGAGTAAACAAATTTTCCTAATCTTTCTGTTCAAGCGCCATCTAC | 0.871 RPM ratio (pull-down/input)
18 | GATGATTGTTCTCCCAGCTGATGAATTCCAGGAATCGAGTAAACAAATTTTCCTAATCTTTCTGTTCAAGCGCCATCTAC | 0.952 RPM ratio (pull-down/input)
19 | GATGATTGTTCTCCCAGCTGATGAATTGCATCGGTCGAGTAAACAAATTTTCCTAATCTTTCTGTTCAAGCGCCATCTAC | 1.12 RPM ratio (pull-down/input)
20 | GATGATTGTTCTCCCAGCTGATGAATTCATAAGCTCGAGTAAACAAATTTTCCTAATCTTTCTGTTCAAGCGCCATCTAC | 0.847 RPM ratio (pull-down/input)
21 | GATGATTGTTCTCCCAGCTGATGAATTCAGGGTCTCGAGTAAACAAATTTTCCTAATCTTTCTGTTCAAGCGCCATCTAC | 0.838 RPM ratio (pull-down/input)
22 | GATGATTGTTCTCCCAGCTGATGAATTCTGAAAATCGAGTAAACAAATTTTCCTAATCTTTCTGTTCAAGCGCCATCTAC | 0.958 RPM ratio (pull-down/input)
23 | GATGATTGTTCTCCCAGCTGATGAATTTGAGCCTTCGAGTAAACAAATTTTCCTAATCTTTCTGTTCAAGCGCCATCTAC | 0.834 RPM ratio (pull-down/input)
24 | GATGATTGTTCTCCCAGCTGATGAATTATTAGTCTCGAGTAAACAAATTTTCCTAATCTTTCTGTTCAAGCGCCATCTAC | 1.19 RPM ratio (pull-down/input)
25 | GATGATTGTTCTCCCAGCTGATGAATTACTCACATCGAGTAAACAAATTTTCCTAATCTTTCTGTTCAAGCGCCATCTAC | 1.28 RPM ratio (pull-down/input)
26 | GATGATTGTTCTCCCAGCTGATGAATTGAGCGTATCGAGTAAACAAATTTTCCTAATCTTTCTGTTCAAGCGCCATCTAC | 1.04 RPM ratio (pull-down/input)
27 | GATGATTGTTCTCCCAGCTGATGAATTAGTCCAATCGAGTAAACAAATTTTCCTAATCTTTCTGTTCAAGCGCCATCTAC | 1.07 RPM ratio (pull-down/input)
28 | GATGATTGTTCTCCCAGCTGATGAATTGCAAGCTTCGAGTAAACAAATTTTCCTAATCTTTCTGTTCAAGCGCCATCTAC | 1.05 RPM ratio (pull-down/input)
29 | GATGATTGTTCTCCCAGCTGATGAATTTACGCGATCGAGTAAACAAATTTTCCTAATCTTTCTGTTCAAGCGCCATCTAC | 1.15 RPM ratio (pull-down/input)
30 | GATGATTGTTCTCCCAGCTGATGAATTTCATTGATCGAGTAAACAAATTTTCCTAATCTTTCTGTTCAAGCGCCATCTAC | 1.01 RPM ratio (pull-down/input)
31 | GATGATTGTTCTCCCAGCTGATGAATTGGCCTGCTCGAGTAAACAAATTTTCCTAATCTTTCTGTTCAAGCGCCATCTAC | 0.792 RPM ratio (pull-down/input)
